# The other results are listed elsewhere or left out. The exact form of the protein is not confirmed.
# Biological target: GST-SBP-ILF3 (Homo sapiens) (UniProt Q12906)
# Test: targeted RNA Bind-n-Seq
# Conditions: RBNS binding buffer: 25 mM Tris pH 7.5, 150 mM KCl, 3 mM MgCl2, 0.1% Tween, 0.5 mg/mL BSA, 1 mM DTT; 27 nM protein, 750 pM RNA pool; temperature not stated; high values mean tight binding; sequences stand for … in GGGUAAAAGCGAGGUGAA…CGGGACAAGUAUUAUGGG
row,Sequence,binding signal (log2 fold change)
1,GGUGUUGGUGUUGGAUCCUAACACCGACGC [gtspaired],-0.585
2,GUGUGGUGUGUUGGAGCCUAACACACCGCG [gtspaired],-0.509
3,UUUUUUUUUUGAGAUGGAAACUAUCUCCUA [tttttgagapaired],0.089
4,GUGUGUUGUGUUGGCUUCUAACACAGCACA [gtspaired],-0.611
5,UUUUUUUUUUGAGAUGGAUGCCGUCUCCAG [tttttgagapaired],0.582
6,UUUUUUUUUUGAGAUGGAUGCCAUCUUCUG [tttttgagapaired],0.215
7,GGUUGGUGUGUUGGUACCUAACACAUCAGC [gtspaired],-0.9
8,UUUUUUUUUUGAGACUGCAGCAGUUUCCUA [tttttgagapaired],0.63
9,GUUGUGUGUGUUGGUAUCUAACACACGCAG [gtspaired],-1.01
10,UUUUUUUUUUGAGACCGGAGCGGUCUUCUA [tttttgagapaired],0.671
11,UUUUUUUUUUGAGAUGGCAACCAUCUCCUG [tttttgagapaired],0.57
12,GGUUGGUGUGUUGGUUCCUAACACAUCAGC [gtspaired],-0.504
13,UUUUUUUUUUGAGAUGGGCACCAUCUCCAG [tttttgagapaired],0.377
14,UUUUUUUUUUGAGAGGGGAUCCCUCUCCUA [tttttgagapaired],0.138
15,UUUUUUUUUUGAGAGUGUAACACUCUUCUG [tttttgagapaired],0.0948
16,GUGUGUGGUGUUGGCGCCUAACACCACAUA [gtspaired],-0.326
17,GUGUGGUGUGUUGGAGUCUAACACAUCGCG [gtspaired],-0.568
18,UUUUUUUUUUGAGAUGGGAACUAUCUCCGG [tttttgagapaired],0.169
19,UUUUUUUUUUGAGACGGAAUCUGUCUCCAG [tttttgagapaired],0.414
20,GUGUGUUGUGUUGGCCCCUAACACAGCACA [gtspaired],-0.219
21,GUGUGUGGUGUUGGUGUCUAACACCAUACG [gtspaired],-1.12
22,GGUUGGUGUGUUGGUGCCUAACACACUAAC [gtspaired],-0.185
23,UUUUUUUUUUGAGAACGUGACGUUCUCCUA [tttttgagapaired],-0.0796
24,UUUUUUUUUUGAGACGGCGGCCGUCUCCAG [tttttgagapaired],1.07
25,UUUUUUUUUUGAGAGCGGAGCGCUCUCCAG [tttttgagapaired],-0.043
26,UUUUUUUUUUGAGAGGGAGUCCUUCUCCAG [tttttgagapaired],0.494

row,Sequence,binding signal (log2 fold change)
1,GUUGUGUGUGUUGGCUUCUAACACACGCGA [gtspaired],-0.658
2,GUUGGUGGUGUUGGCCUCUAACACCGCCAG [gtspaired],-0.471
3,GGUGUUGGUGUUGGUCCCUAACACCAGCGC [gtspaired],-0.657
4,GUGGUGUGUGUUGGCCUCUAACACAUACUA [gtspaired],-0.79
5,UUUUUUUUUUGAGAGGGUUUCCCUCUCCAG [tttttgagapaired],0.0118
6,UUUUUUUUUUGAGACGGCUGCCGUUUCCAG [tttttgagapaired],0.73
7,UUUUUUUUUUGAGAAGGAACCCUUCUCCAG [tttttgagapaired],-0.255
8,UUUUUUUUUUGAGAGGGGGGCCCUCUCCAG [tttttgagapaired],0.781
9,UUUUUUUUUUGAGAGCGAGGCGUUCUUCUA [tttttgagapaired],0.652
10,UUUUUUUUUUGAGAUGGUGGCCAUCUCCUA [tttttgagapaired],0.683
11,UUUUUUUUUUGAGAGGGAUCCCCUCUCCAG [tttttgagapaired],0.282
12,UUUUUUUUUUGAGAUCGGAACGAUUUCCAG [tttttgagapaired],0.115
13,UUUUUUUUUUGAGACUGCGUCAGUCUUCUA [tttttgagapaired],0.313
14,GGUGGUUGUGUUGGAACCUAACACAGCCGC [gtspaired],-0.576
15,UUUUUUUUUUGAGAGGGGGUCCUUCUCCAG [tttttgagapaired],0.801
16,GUGGUGUGUGUUGGAUUCUAACACAUACUA [gtspaired],-0.715
17,GUGGUGUGUGUUGGAGUCUAACACAUACCG [gtspaired],-0.761
18,UUUUUUUUUUGAGAGGGUGCCCCUCUCCUA [tttttgagapaired],0.21
19,UUUUUUUUUUGAGAACGGUGCGUUCUUCUG [tttttgagapaired],0.563
20,UUUUUUUUUUGAGACGGGCACCGUCUCCGG [tttttgagapaired],0.491
21,UUUUUUUUUUGAGACGGUCUCCGUCUCCUA [tttttgagapaired],0.464
22,UUUUUUUUUUGAGACUGAGCCAGUCUUCUG [tttttgagapaired],0.301
23,GUGUGUGGUGUUGGAAUCUAACACCAUACG [gtspaired],-0.727
24,UUUUUUUUUUGAGAACGAUCCGUUCUCCUA [tttttgagapaired],0.0328
25,UUUUUUUUUUGAGAACGAAGCGUUCUCCGG [tttttgagapaired],-0.202
